In ChEMBL document CHEMBL1201862, “PubChem BioAssay data set” (2004):

Each compound was assayed on NCI-H322M (assay: NCI anticancer screen, dose series, 48 h).
In the case of `Cc1nc(Nc2ccc(Cl)c(Cl)c2)sc1C(/C=C/c1ccc2c(c1)OCO2)=N/Nc1ccc([N+](=O)[O-])cc1[N+](=O)[O-]`, the GI50 is reported as inactive: > 100 µM.
With `C[C@H](NC1=CC(=O)C(N[C@@H](C)[C@H](O)c2ccccc2)=CC1=O)[C@H](O)c1ccccc1` the GI50 was inactive: > 100 µM.
`O=C1OC[C@H]2[C@@H]1[C@H]1O[C@@H]2C2=C(CCC2)C1=O` was tested, and the GI50 was inactive: > 100 µM.
`COc1ccc(C2=C[C@]3(O)CCCN3C[C@@H]2c2ccc(OC)c(OC)c2)cc1` was tested, and the GI50 was active: < 0.0001 µM.
With `CC1(C)Oc2ccc3c(=O)c4ccccc4oc3c2C1C(=O)O` (configuration not stated) the GI50 was inactive: > 100 µM.
For `CCCCCCCCCCCCCP(=O)(OC)OC`, the GI50 was inactive: 16.3 µM.
`O=C(/C=C/c1cccc2ccccc12)c1ccccc1Cl` was tested, and the GI50 was inactive: 17.1 µM.
In the case of `Cc1cc(C2(c3cc(C)c(O)c4ncccc34)OC(=O)c3ccccc32)c2cccnc2c1O`, the GI50 is reported as active: 0.372 µM.
For `Cc1ccc([S+]([O-])c2sccc2C=O)cc1` (configuration not stated), the GI50 was inactive: 50.5 µM.
With `CN1CCC/C1=C1\C(=O)c2cccn2C1=O` the GI50 was inactive: > 100 µM.
For `O=C1[C@@H]2C(c3ccc(Cl)cc3Cl)=NO[C@@H]2C(=O)N1c1ccc(Cc2ccc(N3C(=O)[C@H]4C(c5ccc(Cl)cc5Cl)=NO[C@H]4C3=O)cc2)cc1`, the GI50 was inactive: > 100 µM.
With `COc1ccc(N[S+]([O-])c2ccc(Cl)cc2)cc1` (configuration not stated) the GI50 was inactive: 59.4 µM.
With `Nc1ncnc2c1ncn2[C@@H]1O[C@H](COP(=O)(O)O)[C@@H](O)[C@@H]1O` the GI50 was inactive: > 50 µM.
In the case of `O=C1C(=O)N(c2ccc(Cl)cc2)C(=O)C(=O)C1c1nc2ccccc2o1`, the GI50 is reported as inactive: > 100 µM.
For `CCC(=O)c1cc(C(=O)C(=S)SC)cc(C(=O)C(=S)SC)c1`, the GI50 was inactive: > 100 µM.
For `Cc1ccc(NCc2nnc3c(-c4ccccc4)nc4ccccc4n23)cc1`, the GI50 was inactive: 25 µM.
In the case of `C[C@]12CCC3c4ccc(OC(=O)c5ccccc5)cc4CC[C@H]3C1CC[C@@H]2OC(=O)C12OC1CCC2=O` (some centres not stated), the GI50 is reported as inactive: 6.19 µM.
In the case of `CCOC(=O)Nc1cc2c(c(N)n1)N=C(c1ccc(Cl)cc1Cl)CN2`, the GI50 is reported as active: 0.0716 µM.
With `CN(C)CCNC(=O)c1cccc2c1nc(-c1cccnc1)c1ccccc12` the GI50 was inactive: 5.33 µM.
With `CC(C)Cc1ccc(C(C)/C=C2\CCC(CN3CCCC3)C2=O)cc1` (configuration not stated) the GI50 was inactive: 22.8 µM.
In the case of `CC(=O)N1c2cc(/N=N/N(C)C)ccc2NC(=O)CC1C` (configuration not stated), the GI50 is reported as inactive: > 100 µM.
For `NCCCNCCCCN(CCCN)/[N+]([O-])=N\O`, the GI50 was inactive: > 100 µM.
`COc1ccc(/C=N/N=C(\N)NO)c(OC)c1OC` was tested, and the GI50 was inactive: 15.9 µM.
For `CC12C(=O)N(CCN)C(=O)C1C1c3ccccc3C2c2ccccc21` (configuration not stated), the GI50 was inactive: > 100 µM.
With `Cc1cc(=O)nc(Sc2ccc([N+](=O)[O-])cc2[N+](=O)[O-])[nH]1` the GI50 was inactive: > 52.2 µM.
With `CC1(C)OCC(/C=C\C(O)CC2(C)OCCO2)CO1` (configuration not stated) the GI50 was inactive: > 100 µM.
`O=C(Cl)c1cc([N+](=O)[O-])cc([N+](=O)[O-])c1` was tested, and the GI50 was inactive: > 100 µM.
For `C=CC(Cl)(CBr)CCC(Br)=C(C)C` (configuration not stated), the GI50 was inactive: 60.3 µM.
In the case of `CCCn1c(=O)c2nn3c(=O)n(CCC)c(=O)c3nn2c1=O`, the GI50 is reported as inactive: > 100 µM.
`COC(=O)C1C2CC3C(OC(=O)C31)C2OC(=O)[C@](OC)(c1ccccc1)C(F)(F)F` (some centres not stated) was tested, and the GI50 was inactive: > 100 µM.
With `COC(=O)C(=Cc1cc(OC)c(OC)c(OC)c1-c1cc2c(cc1C(C)=O)OCO2)C(=O)OC` the GI50 was inactive: 36.5 µM.
`S=C(NCCc1ccccn1)c1nc[nH]c1C(=S)NCCc1ccccn1` was tested, and the GI50 was inactive: > 100 µM.
`N#CC(c1ccccc1)N(CCOCCOCCN(C(=O)c1cccc2ccccc12)C(C#N)c1ccccc1)C(=O)c1cccc2ccccc12` (configuration not stated) was tested, and the GI50 was inactive: > 100 µM.
`C=C1C(OC(=O)/C=C/c2ccccc2)CC(OC(C)=O)C2(C)C1CC1CC(OC(C)=O)C(C)=C(C(OC(C)=O)C2OC(C)=O)C1(C)C` (configuration not stated) was tested, and the GI50 was inactive: > 100 µM.
`C[C@H]1C(=O)C2=C[C@H]1CCC(=O)[C@]1(C)CCCC(C)(C)[C@H]1C[C@H]2O` was tested, and the GI50 was inactive: > 100 µM.
In the case of `Cc1cc(Cl)ccc1NC1=NC(=O)C(CC(=O)Nc2cccc(Cl)c2)S1` (configuration not stated), the GI50 is reported as inactive: 75.9 µM.
In the case of `CC1=CC[C@@H]2[C@@H](CC[C@@]2(C)O)C(C)(C)[C@H]1CC[C@@H]1[C@@]2(C)CCC(=O)C(C)(C)O[C@@H]2CC[C@]1(C)O`, the GI50 is reported as inactive: 44.4 µM.
With `O=C1Nc2ccccc2C(=O)O/C(Cc2ccccc2)=N\c2ccccc21` the GI50 was inactive: > 100 µM.
In the case of `CC(=O)c1c2c(cc3c1CC1(C3)Cc3cc4c(c(C(C)=O)c3C1)CCC4)CCC2`, the GI50 is reported as inactive: > 100 µM.
`Cn1ccnc1Sc1ccc(/C=N/NC(=O)c2ccccc2[N+](=O)[O-])cc1[N+](=O)[O-]` was tested, and the GI50 was inactive: 74 µM.
With `COC(=O)[C@@H]1C[C@@H]2c3ccccc3N(S(=O)(=O)c3ccccc3)[C@@H]2N1C(=O)OC` the GI50 was inactive: > 100 µM.
With `CC1=C(CO)C(=O)O[C@@H]([C@@H](C)[C@H]2CC[C@H]3[C@@H]4C[C@@H](O)[C@@]5(O)CC=CC(=O)[C@]5(C)[C@H]4CC[C@]23C)C1` [JABOROSALACTONE D] the GI50 was inactive: 36.4 µM.
With `CC(=O)c1c(-c2ccc(Cl)cc2)c(C#N)c(=S)n(C2OC(CO)C(O)C(O)C2O)c1C` (configuration not stated) the GI50 was inactive: > 100 µM.
In the case of `CC1(C)C(/C=N\O)=[N+]([O-])C(C)(C)N1O`, the GI50 is reported as inactive: > 100 µM.
For `Cc1cc(=O)oc2c(C)c3oc(CBr)cc3cc12`, the GI50 was inactive: 24.3 µM.
With `O=C1c2ccccc2C(=O)N1C/C=N/NS(=O)(=O)c1cccc([N+](=O)[O-])c1` the GI50 was inactive: > 100 µM.
For `CC(C)(O)C1COC2=C1C(=O)c1ccccc1C2=O` (configuration not stated), the GI50 was inactive: > 100 µM.
With `COc1ccc2c(c1)N=C1CSC(c3cc([N+](=O)[O-])ccc3Cl)N1C2` (configuration not stated) the GI50 was inactive: 17.8 µM.
In the case of `CCOC(=O)CC(NC(=O)c1nc[nH]c1[N+](=O)[O-])C(=O)OCC` (configuration not stated), the GI50 is reported as inactive: > 100 µM.
In the case of `C[C@]12CCC(=O)C=C1CC[C@@H]1C2CC[C@]2(C)Nc3c(ncn3-c3ccc(F)cc3)CC12` (some centres not stated), the GI50 is reported as inactive: 56.8 µM.
With `COc1ccc2cc(-c3nc(N)nc(N4N=C(C)CC4(C)C)n3)c(=N)oc2c1` the GI50 was inactive: 20.7 µM.
With `Cc1c2cnccc2c(C)c2c1c1ccccc1n2CCCN` the GI50 was active: 0.2 µM.
In the case of `O=C1CC(=O)NC(NNS(=O)(=O)c2ccccc2)=N1`, the GI50 is reported as inactive: > 100 µM.
`CC(=O)NC(CCCN(Cc1ccccc1)C(=O)N(C)N=O)C(=O)NCc1ccccc1` (configuration not stated) was tested, and the GI50 was inactive: > 100 µM.
In the case of `c1cnc2c(c1)-n1cccc1C1(CCCCC1)NN2`, the GI50 is reported as inactive: 90.2 µM.
With `[O-][S+](c1ccccc1)c1ccc(/N=N/O)nc1` (configuration not stated) the GI50 was inactive: > 100 µM.
In the case of `CC(=O)OC1CC2(C)C(OC(C)=O)CC1C2(C)C` (configuration not stated), the GI50 is reported as inactive: > 100 µM.
`O=C(c1ccccc1)c1ccc2[nH]c(-c3c(Cl)c(Cl)c(Cl)c(Cl)c3C(=O)N/N=C/c3ccccc3)nc2c1` was tested, and the GI50 was inactive: 30.3 µM.
In the case of `CCN(CC)Cc1nc(C2CCC([N+](=O)[O-])O2)no1` (configuration not stated), the GI50 is reported as inactive: 23.6 µM.
With `COC(=O)[C@]1(C)CCCC2(C)C1CC[C@H]1C=C(C)[C@H]3CCC12C3` (some centres not stated) the GI50 was inactive: > 100 µM.
With `CC1(C)CC(=O)C(=CN2C(=O)CNC2=S)C(=O)C1` the GI50 was inactive: > 100 µM.
`O=C1C(Cl)=C(N2CCSCC2)C(=O)c2c(O)ccc(O)c21` was tested, and the GI50 was active: 0.644 µM.

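Each compound was tested at five concentrations against cells in 96-well plates for 48 hours. The concentration for 50% growth inhibition is given as GI50.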 Active and inactive are the calls of the source. Rule as the data show it: active = GI50 up to about 1.1 µM and inactive = higher.
